Laboratory results: PubChem BioAssay AID485281 (National Center for Advancing Translational Sciences (NCATS), 2010)
In all, about 350,000 compounds went through this assay and about 260 (0.074%) were called active. The shares of active, inactive and inconclusive entries below differ from those in the screen. Calls follow the shape of the dose curve; as a rule, active = well fitted inhibition curve with a large enough effect; inconclusive = small, poorly fitted or top-dose-only effect; inactive = no such curve, though single readings can be large or run the other way. Where the call is inconclusive, the potency comes from a doubtful curve fit.

These compounds were tested against Ferritin light chain (Equus caballus) (UniProt P02791) (assay: qHTS Assay for Identification of Novel General Anesthetics). Conditions: apoferritin/1-aminoanthracene competitive binding, fluorescence; series mostly up to 77.5 µM.
Outline: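 Read-out: endpoint 1-AMA fluorescence, excitation 380 nm and emission 535 nm, after compounds sit 10 min at room temperature with 10 uM horse-spleen apoferritin in 50% saturated 1-AMA/PBS. Values come from four-parameter Hill fits.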
Also: nearly all actives have a fitted effect of over 20% in size.
Potency is read from the fitted curve at half-maximal effect; tags tell the direction and shape of the fitted curve.

Sequence of UniProt P02791 (P02791 whole entry, looked up): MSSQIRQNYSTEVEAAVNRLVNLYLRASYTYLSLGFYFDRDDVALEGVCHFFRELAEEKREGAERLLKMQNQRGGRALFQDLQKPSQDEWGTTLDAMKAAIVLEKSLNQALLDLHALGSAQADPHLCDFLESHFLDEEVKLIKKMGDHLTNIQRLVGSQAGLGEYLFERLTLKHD

SMILES | Potency
O=C(Oc1cccc(C(=S)N2CCCCC2)c1)c1ccccc1 | inconclusive: 35.5 µM [inhibitor, partial curve]
CCOc1ccc(N=C2NN=C(c3cc(C)n(CC4CCCO4)c3C)CS2)cc1 (stereo not given) | inconclusive: 31.6 µM [inhibitor, single point]
Cc1oc2ccc(O)cc2c1C(=O)c1ccc(Cl)cc1 | inconclusive: 44.7 µM [inhibitor, partial curve, poor fit]
CC1CCCCN1S(=O)(=O)Cc1ccccc1Cl (stereo not given) | inconclusive: 11.2 µM [inhibitor, partial curve]
CC(C)Oc1ccccc1C1(c2ccccc2)NC(=O)NC1=O (stereo not given) | inconclusive: 35.5 µM [inhibitor, single point]
COc1cc2c(cc1OC)CN(Cc1nc3ccsc3c(=O)[nH]1)CC2 | inactive
Cc1cccc2c1-c1sc(C(=O)NCCCN3CCN(c4cccc(Cl)c4)CC3)cc1CO2 | inactive
O=C(COC(=O)CCc1ccc(S(=O)(=O)N2CCOCC2)cc1)Nc1ncc(C(F)(F)F)cc1Cl | inconclusive: 56.2 µM [inhibitor, single point]
Nc1c(Cl)cc2c(c1Oc1ccccc1)C(=O)c1ccccc1C2=O | inconclusive: 10 µM [inhibitor, full curve, poor fit]
C=CCNC(=S)/C(=C(/[O-])c1ccc([N+](=O)[O-])cc1)[n+]1ccccc1 | inactive
CCCNC(=O)CSc1nc(COc2ccccc2)nc2ccccc12 | inconclusive: 35.5 µM [inhibitor, partial curve]
Cc1ccc(-n2ncc(Cl)c2C(=O)NC2CC2)cc1 | inconclusive: 10 µM [inhibitor, partial curve]
CCNC(=O)/C(=C/c1cccc([N+](=O)[O-])c1)NC(=O)c1ccc(C)cc1 | inactive
Cc1cc(C)c(Nc2cc(S(=O)(=O)O)c(N)c3c2C(=O)c2ccccc2C3=O)c(C)c1 | inactive
O=C1C2C3C=CC(CC3)C2C(=O)N1c1cccc(Br)c1 (stereo not given) | inconclusive: 10 µM [inhibitor, partial curve]
CCCn1nnnc1SCC(=O)N(C(C)C)C(C)C | inconclusive: 31.6 µM [inhibitor, partial curve]
N=C1/C(=C/c2ccc(OC(=O)c3ccco3)cc2)C(=O)N=C2SC=CN12 | inactive
CC(=O)Nc1ccc(-c2csc(NC(=O)Cc3cccc(F)c3)n2)cc1 | inactive
Cc1c(Cl)cccc1Nc1nc(N)nc(CSc2ncccn2)n1 | inconclusive: 28.2 µM [inhibitor, single point]
O=C(CCC(=O)Nc1ccccc1Cl)N/N=C/c1c[nH]c2ccccc12 | inconclusive: 35.5 µM [inhibitor, partial curve]
